Reference: the supplement of paper PMC10338343
± gives the standard deviation. The entries are a selection whose mix differs from that of the whole data set.

The sequences below were run on MIWI (PIWIL1) piRISC loaded with piRNA #1 (30 nt) (assay: pre-steady-state target cleavage rate (min^-1); MIWI and MILI are mouse PIWI proteins and EfPiwi is from a freshwater sponge; tags in brackets are library labels; higher = faster piRNA-guided slicing of the target). Details: guide: piRNA #1 5'p-UGAGGUAGUAGGUUGUAUAGUAUCCAGAGG; auxiliary factor: 500 nM mouse GTSF1.
Summary of the method: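 A transcribed, DNA-blocked target RNA library (0.1 nM) and 1 nM active affinity-purified piRISC bearing one synthetic guide were incubated in HEPES–potassium acetate buffer at 33 °C for 0–8 or 0–960 min, either with or without 500 nM GTSF1 partner protein. Uncleaved targets were sequenced, normalised to depth and to weakly complementary targets, and pooled over three trials, with k3 capped at 0.0001 min^-1. The pre-steady-state cleavage rate was derived with a burst-and-steady-state fit.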

Sequence	pre-steady-state target cleavage rate
GCUCUGGAUUCUAUACAACCAACUACCUCA	0.148 ± 0.014
GCACUGGAUACUAUACAACGUACUACCUCA	1.19 ± 0.063
GGAGACCUAACUAUACAACCAACUACGUCA	0.0099 ± 0.0034
GGUCUGGAUACUAUACAACCUACUACGCUCA	0.768 ± 0.08
GGAGAGGAUACUAUACAACCUACUACCUCG [g2:g25:cont:t1G]	0.774 ± 0.045
GGAGACCUAUCUAUACAACCUACUACCUAA	0.844 ± 0.065
GGAGACCUGACUAUACAACCUACUACCUCA	1.27 ± 0.17
GGACUGCAUAGUAUACAACCUACUACCUCA	0.942 ± 0.11
GGAGACGAUACUAUACAAGCUACUACCUGA	0.813 ± 0.042
GGAGACCAUACUAUUCAACCUACUACCUCA	1.45 ± 0.12
GGUCUGGAUAGUAUACAACCUACUUCCUCA	0.302 ± 0.056
GGACUGGAUACUAUACAACCUACUACCUUA	0.844 ± 0.075
GGAGACCUUUCUAUACAACCUACUACCACA	0.841 ± 0.089
GGAGUGGAUACUUUACAACCUACUAGCUCA	0.014 ± 0.0035
GGAGAGGAUACUAUACAACCUACUACCUAA	0.961 ± 0.062
GGUCUGGAUACUAUACAACCCACUACCUCA	0.631 ± 0.034
GGAGACCUUACUAUACAAGCUACUUCCUCA	0.416 ± 0.033
GGAGUGGAUUCUUUACAACCUACUACCUCA	1.13 ± 0.082
CACUCUGGAUACUAUACAACCUACUACCUCA	2.09 ± 0.12
GCUCUGGAUACUAUACAACGUAGUACCUCA	0.474 ± 0.038

Sequence	pre-steady-state target cleavage rate
GCUCUGGAUACUUUACAACCUACUACGUCA	0.886 ± 0.062
GGACUGGAUACUAUACAACCUUCAACCUCA	0.138 ± 0.028
GGAGACCUAACAAUACAACCUACUACCUGA	0.00542 ± 0.0049
GGUCUGGAUACUAUACAUCCUACUUCCUCA	0.246 ± 0.03
CGUCUCGAUACUAUACAACCUACUACCUCA	1.62 ± 0.1
GGACUGGAUACUAUAGAACCUACUACCACA	0.0248 ± 0.0067
GGAGAGGAUACUAUACAACCUUCUACCUGA	0.0813 ± 0.015
GGAGAGGUUACUAUACAACCUACUAGCUCA	0.00956 ± 0.0034
GCUAUGGAUACUAUACAACCUACUACCUCA	1.93 ± 0.092
GCUCUCGAUACUAUACAACGUACUACCUCA	1.18 ± 0.067
GGACAUGGAUACUAUACAACCUACUACCUCA	1.72 ± 0.092
GGAGACGAUACCUAUACAACCUACUACCUCA	1.1 ± 0.1
GGUGUGGAUACUUUACAACCUACUACCUCA	1.6 ± 0.098
GGACUGGAUACUAUACAACCUAGCUACCUCA	0.228 ± 0.024
GGAGACGAUACUAUACAACCUACUAACUCA	0.469 ± 0.048
GCUCUGGAUACUAUAGAACCAACUACCUCA	0.0216 ± 0.0031
GGAGACCUAUCUAUACAUCCUACUACCUGA	0.151 ± 0.023
GGACUGGAUACUAUACCACCUACUACCUCA	1.17 ± 0.082
GCACUGGAUACUAUACAACCUACUAGCUCA	0.243 ± 0.033
CCUUCUGGAUACUAUACAACCUACUACCUCA	2.22 ± 0.12
